Measurements as given in PubChem BioAssay AID651582 (Sanford-Burnham Center for Chemical Genomics, 2012).
The other results are listed elsewhere or left out. The main result of the screen is listed elsewhere. These columns were measured beside it and carry no call. Compounds called inactive in the main read-out are mostly missing here.

Experiment: TAG lipid buildup reduction in H9c2 cells – cell-based, uHTS, fluorescence, primary screen (AID 651582)
Conditions: Nile Red lipid (TAG) fluorescence, measured here:, at 12.5 µM, cells loaded with 200 µM oleic acid

Compound	DAPI nuclei signal change (viability), lower = more cytotoxic [%]
COc1ccc(NC(=O)Cn2c(=O)n(-c3ccc(CC(=O)NCc4ccco4)cc3)c(=O)c3ccccc32)cc1	-33.9
Cc1ccc(NC(=O)C(=Cc2ccc(C(=O)O)cc2)C(=O)Nc2ccc(C)cc2C)c(C)c1	-22.1
O=C(CSc1cccc2cccnc12)Nc1ccc(S(=O)(=O)N2CCOCC2)cc1	-46.3
Clc1cccc(Nc2nc(-c3ccncc3)cs2)c1	-37.7
COc1ccc(Cn2c(SCc3cc(C)ccc3C)nc3cc(OC)c(OC)cc3c2=N)cc1	-15.8
Cc1ccc(CN(C(=O)c2csnn2)C(C(=O)NC2CCCC2)c2ccc(C)o2)cc1 (stereo not drawn)	0.747
Cc1cc(C)nc(S/C=C/C(=O)c2ccccc2F)n1	-47.6
O=C(N/N=C/c1ccc(Cl)cc1)c1n[nH]c2c1CCCC2	-29.7
c1ccc(N(c2ccccc2)c2nc(N3CCCC3)nc(-n3ccnc3)n2)cc1	4.96
Cc1cc(NC(=O)CSc2nc3ccccc3c(=O)n2C2CCCC2)no1	-38.1
O=[N+]([O-])c1ccc(Nc2nc(NC3CCCCC3)nc(N3CCCC3)n2)cc1	-14.4
O=C(c1ccc(Br)cc1)c1cc([N+](=O)[O-])ccc1N1CCCCC1	-25.1
COc1ccc(NC(=O)/C(Cl)=C(/Cl)S(=O)Cc2ccccc2)cn1 (stereo not drawn)	-48.5
COc1ccc(NC(=O)/C(Cl)=C(/Cl)S(=O)Cc2ccc(Cl)cc2)cn1 (stereo not drawn)	-37.5
O=C(COc1ccccc1-c1ccccc1)N/N=C/c1cccc2ccccc12	-35.2
Cc1cccc2cc(C#N)c(SCC(=O)NNC(=O)Cc3ccccc3)nc12	-33
COc1cc(/C=C2/NC(=O)N(Cc3ccccc3F)C2=O)ccc1O	-25.4
CN(C)CCn1c2ccccc2c2nc3ccc([N+](=O)[O-])cc3cc21	-35.8
COc1ccc(C[C@H]2CN3C(=NC[C@@H]3Cc3ccc(O)cc3)N2C[C@H](C)NC(=O)CCC2CCCCC2)cc1	-22
Cc1ccc(-n2nc(C(=O)NCc3ccc(C)o3)c3c4ccccc4n(C)c3c2=O)cc1	-0.65
CCCCSc1nnc(-c2ccc(NC(=O)CCc3ccccc3)cc2)n1C	4.73
CC(C)(C)NCCC(O)c1cc(C(F)(F)F)nc2c(C(F)(F)F)cccc12 (stereo not drawn)	-18.2
CCc1nc(C)c(C(=O)N2CCCC(C(=O)Nc3cccc(-c4cccc(C)c4)c3)C2)o1 (stereo not drawn)	4.2
COc1ccc2cc3cc(C(=O)Nc4ccccc4N4CCN(C)CC4)oc3nc2c1	10.7

Compound	DAPI nuclei signal change (viability), lower = more cytotoxic [%]
COc1ccc(-c2c(C#N)c(N)nc(Sc3ccc(Cl)cc3)c2C#N)cc1	-39.8
CCCSc1nc(SCC(=O)NCc2ccccc2)c2c3c(sc2n1)COC(C)(CC)C3 (stereo not drawn)	-8.52
CCn1ncc(/C=N/N=C2\CCC3C4CCc5cc(O)ccc5C4CCC23C)c1C (stereo not drawn)	-26.3
O=C(CCl)N=c1sccn1Cc1ccccc1Cl	-28.2
CC(C)c1ccc(C2C3=C(COC3=O)Nc3cc4c(cc32)OCO4)cc1 (stereo not drawn)	-30.5
Cc1ccc(S(=O)(=O)NC2=C(N3CCN(c4ccccc4F)CC3)C(=O)c3ccccc3C2=O)cc1	-14.4
COc1ccc(C(=O)N/N=C/c2cc(Br)ccc2O)cc1OC	-18.5
CCOc1ccc(CCNC(=O)CN(C)S(=O)(=O)c2cccc3nsnc23)cc1OCC	-9.28
CC(C)(C)OC(=O)N1CCN(c2ccc(NC(=O)Cn3nnc(-c4ccccc4)n3)cc2)CC1	-9.48
O=c1cc(-c2ccccc2)[nH]c2ccc(F)cc12	-43.4
Cc1cccc(N2CCN(C(=O)CCCn3c(=S)[nH]c4cc5c(cc4c3=O)OCO5)CC2)c1C	-3.89
CC(=O)Nc1ccc(-c2ccnc3c2CC(C(=O)NCc2cccc(Cl)c2)O3)cc1 (stereo not drawn)	-39.8
COc1ccc(Cl)cc1NC(=O)CSc1nnc(COc2ccccc2)n1N	-5.51
CN(C)CCNC(=O)C(=O)Nc1ccc2c(c1)N(S(=O)(=O)c1cccs1)CCC2	-26.8
COc1cc(C(=O)NC2CCN(C)CC2)ccc1Nc1ncc2c(n1)N(C1CCCC1)CCC(=O)N2C(C)C	-12.5
O=C(Nc1ccc2c(c1)OCCO2)c1cc2sccc2n1Cc1ccccc1	-10.6
CC(=O)Nc1sc2c(c1-c1nc3ccccc3s1)CCN(C(C)C)C2	39.7
CCOc1ccc(Nc2nc(N)nc(CCl)n2)cc1	-19
Clc1ccc(C2=Nn3c(nnc3-c3n[nH]c4c3CCC4)SC2)cc1	-14.9
CCN1CCN(Cc2ccc(NC(=O)c3cc(NC(=O)c4cncc(-c5cccs5)c4)cc(OC)c3)cc2C(F)(F)F)CC1	20.3
c1ccc(Oc2nc(-c3ccccn3)nc3ccccc23)cc1	-44.2
CCOC(=O)CSc1cccc2cccnc12	-47.9
CCO[C@@H]1OC(C(=O)NCc2nc3ccccc3[nH]2)=C[C@H](c2cn(C(C)=O)c3ccccc23)[C@H]1CCCO	-11.9
COc1ccc(CC(N)c2csc(NC(=O)c3cccc(OC(F)(F)F)c3)n2)cc1 (stereo not drawn)	13.9
